The campaign covered roughly 360,000 compounds. About 660 (0.18%) were called active. This list was built around the results that the source calls inconclusive (neither active nor inactive); the mix of calls is not that of the screen. The call rests on the fitted dose curve; in most records, active means well fitted inhibition curve with a large enough effect; inconclusive means small, poorly fitted or top-dose-only effect; inactive means no such curve, though single readings can be large or run the other way. Potencies of inconclusive entries are left out as doubtful fits.
Biological target: Rap guanine nucleotide exchange factor 4 (Homo sapiens) (UniProt Q8WZA2)
Experiment: qHTS for Antagonist of cAMP-regulated guanine nucleotide exchange factor 2 (EPAC2): primary screen; further: nearly all actives have a fitted effect of over 45% in size
Conditions: EPAC2 GEF exchange of Rap1B-BODIPY-GDP, fluorescence; activity, negative = inhibition: at 114 µM (top of the series) unless noted
On the % scale 0 is the no-effect control and ±100 the full control effect; potency means the concentration at half of the fitted maximal effect; tags describe the fitted curve by direction and shape.

Chain of UniProt Q8WZA2 (Q8WZA2 whole entry, looked up): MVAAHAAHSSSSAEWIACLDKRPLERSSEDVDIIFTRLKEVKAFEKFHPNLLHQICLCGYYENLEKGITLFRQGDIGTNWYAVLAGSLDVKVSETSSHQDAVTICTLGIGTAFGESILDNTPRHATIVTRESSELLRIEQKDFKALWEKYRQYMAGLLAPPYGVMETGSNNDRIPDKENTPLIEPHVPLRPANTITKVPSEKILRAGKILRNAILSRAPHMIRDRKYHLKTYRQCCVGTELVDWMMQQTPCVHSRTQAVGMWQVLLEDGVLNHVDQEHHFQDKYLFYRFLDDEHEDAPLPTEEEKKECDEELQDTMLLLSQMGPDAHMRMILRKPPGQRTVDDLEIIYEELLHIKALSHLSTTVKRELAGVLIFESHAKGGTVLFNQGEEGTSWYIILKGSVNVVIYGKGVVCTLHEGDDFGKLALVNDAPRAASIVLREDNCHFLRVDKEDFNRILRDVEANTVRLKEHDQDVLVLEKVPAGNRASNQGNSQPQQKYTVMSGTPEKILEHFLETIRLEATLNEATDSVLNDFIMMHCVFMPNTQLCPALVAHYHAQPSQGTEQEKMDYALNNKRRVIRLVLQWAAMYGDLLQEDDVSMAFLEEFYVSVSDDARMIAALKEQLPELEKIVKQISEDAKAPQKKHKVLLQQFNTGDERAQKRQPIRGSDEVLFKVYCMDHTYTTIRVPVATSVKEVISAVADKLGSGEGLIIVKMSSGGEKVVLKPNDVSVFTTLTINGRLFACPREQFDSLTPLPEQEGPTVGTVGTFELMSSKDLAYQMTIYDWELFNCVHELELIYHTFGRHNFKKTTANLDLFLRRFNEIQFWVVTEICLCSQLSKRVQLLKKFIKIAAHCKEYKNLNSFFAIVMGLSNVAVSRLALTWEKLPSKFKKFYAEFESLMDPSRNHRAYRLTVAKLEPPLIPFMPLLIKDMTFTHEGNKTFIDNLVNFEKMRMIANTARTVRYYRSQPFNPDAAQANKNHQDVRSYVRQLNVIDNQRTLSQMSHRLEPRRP

Q: How did the Potency turn out when COc1ccc(CN(CCC(C)C)S(=O)(=O)c2ccccc2Br)cc1 was run?
A: Its Potency is inconclusive [inhibitor, full curve].

Q: Which Potency does the source give for CCOCCCn1c(=N)c(S(=O)(=O)c2ccccc2)cc2c(=O)n3cc(C)ccc3nc21 here?
A: Its Potency is inconclusive [inhibitor, single point].

Q: For COCCN(C(=S)Nc1ccc(C)cc1)C(C)c1ccco1 (stereo unspecified), which Potency is on record?
A: Its Potency is inconclusive [inhibitor, partial curve].

Q: With COc1cc(C(C)=O)ccc1OCC(O)CN1CCN(c2cc(C)cc(C)c2)CC1 (stereo unspecified) as the compound, how does the Potency read?
A: The Potency was inconclusive [inhibitor, single point].

Q: How did the “activity, negative = inhibition” value turn out when Cc1cc(C(=O)N2CCN(c3cc(Cl)ccc3C)CC2)on1 was run?
A: Its value is inactive: -23.3%.

Q: Which Potency does the source give for Cc1ccc(CN(C)C(=O)c2ccccc2Sc2ccccc2C#N)cc1 here?
A: The Potency was inconclusive [inhibitor, partial curve].

Q: CC(=O)NC1=NC(=O)/C(=C/c2cc(C)n(-c3cccc(C(=O)O)c3)c2C)S1 was tested. Which Potency did it give?
A: The Potency was inconclusive [inhibitor, partial curve].

Q: Which Potency does the source give for O=C(/C=C/c1cc([N+](=O)[O-])ccc1OC(F)F)Nc1ccc(OC(F)F)cc1 here?
A: Its Potency is inconclusive [inhibitor, single point].

Q: With C=CCc1ccc(O)c(-c2ccc(O)c(CC=C)c2)c1 as the compound, how does the Potency read?
A: Its Potency is inconclusive [inhibitor, partial curve].

Q: Which “activity, negative = inhibition” value does the source give for O=c1nc(/C=C/c2ccccc2C(F)(F)F)cc(C(F)(F)F)[nH]1 here?
A: The value was inactive: -25.6%.

Q: Nc1ccc(N=Nc2ccccc2Cl)c(N)n1 was tested. Which Potency did it give?
A: Its Potency is inconclusive [inhibitor, full curve, poor fit].

Q: With CCc1ccc2c(c1)NC(=O)C2(C)Cc1ccc(Cl)s1 (stereo unspecified) as the compound, how does the Potency read?
A: The Potency was inconclusive [inhibitor, partial curve].

Q: With COc1ccc(/C=N/Nc2ccc(C(=O)O)cc2)cc1Br as the compound, how does the Potency read?
A: Its Potency is active: 56.2 µM.

Q: With COc1ccc(-c2sc3ccc(OC)cc3c2C#CCCO)cc1 as the compound, how does the Potency read?
A: The Potency was inconclusive [inhibitor, partial curve].

Q: COc1ccc(CNCCc2ccc([N+](=O)[O-])cc2)c(OC)c1OC was tested. Which “activity, negative = inhibition” value did it give?
A: Its value is inactive: -3.48%.

Q: For O=C(Nc1cccn2ncnc12)c1ccc(Cl)cc1, which “activity, negative = inhibition” value is on record?
A: Its value is inactive: 11.5% [at 57.1 µM].

Q: O=C(Nc1ccccc1N1CCCCC1)C1=COCCO1 was tested. Which Potency did it give?
A: The Potency was inconclusive [inhibitor, partial curve].

Q: For Cc1cc(C)c(OCC(=O)OCC(=O)N2c3ccccc3CC2C)c(C)c1 (stereo unspecified), which Potency is on record?
A: Its Potency is inconclusive [inhibitor, single point].

Q: Which “activity, negative = inhibition” value does the source give for O=C(COC(=O)/C=C/c1cccs1)Nc1ccc(Cl)cc1F here?
A: The value was inactive: -2.87%.

Q: How did the “activity, negative = inhibition” value turn out when Cc1ccc(-c2nc3ccsc3c(=O)o2)cc1 was run?
A: The value was inactive: 1.06%.

Q: How did the Potency turn out when CSc1ccc(CN2CCC2(C)C(=O)NCc2ccccc2Br)cc1 (stereo unspecified) was run?
A: The Potency was inconclusive [inhibitor, full curve].

Q: For CCOC(=O)c1c2c(n(Cc3ccccc3)c1C)C(=O)C(=O)c1ccccc1-2, which “activity, negative = inhibition” value is on record?
A: Its value is inactive: -0.801%.

Q: CCN(c1ccc(OC)cc1)c1ncnc2nc[nH]c12 was tested. Which “activity, negative = inhibition” value did it give?
A: The value was inactive: 4.9%.

Q: Which Potency does the source give for O=[N+]([O-])c1ccc(Nc2c3ccccc3nc3ccccc23)cc1 here?
A: Its Potency is inconclusive [inhibitor, single point].

Q: With CCc1nc2c(OCc3ccccc3)cccn2c1N(C)C(=O)c1ccc(OC)cc1 as the compound, how does the Potency read?
A: The Potency was inconclusive [inhibitor, partial curve].

Q: C=C1CCC(N(O)c2cc(C)on2)C(=C)CCC2C1CC2(C)C (stereo unspecified) was tested. Which Potency did it give?
A: Its Potency is inconclusive [inhibitor, partial curve, poor fit].

Q: How did the Potency turn out when C[C@H](NS(=O)(=O)OCC(Cl)(Cl)Cl)C1CC1c1ccccc1 (stereo partly specified) was run?
A: The Potency was inconclusive [inhibitor, single point].

Q: CN(C)S(=O)(=O)c1ccc(N2CCCC2)c(C(=O)N2CCN(S(=O)(=O)c3ccc(F)cc3)CC2)c1 was tested. Which Potency did it give?
A: Its Potency is inconclusive [inhibitor, single point].

Q: For COCCNCC(O)CON=C1c2ccccc2-c2ccccc21 (stereo unspecified), which Potency is on record?
A: The Potency was inconclusive [inhibitor, single point].

Q: CCC(C)NC(=O)CN1C(=O)c2cccc3cccc1c23 (stereo unspecified) was tested. Which “activity, negative = inhibition” value did it give?
A: The value was inactive: 13.5%.

Q: Which Potency does the source give for CCOC(=O)COc1nc(-c2ccco2)cc(-c2ccco2)c1C#N here?
A: Its Potency is inconclusive [inhibitor, partial curve].

Q: O=C(COC(=O)c1oc2ccccc2c1CSc1ccc(Cl)cc1)NC1CCCC1 was tested. Which Potency did it give?
A: The Potency was inconclusive [inhibitor, partial curve].

Q: How did the Potency turn out when Nc1ccc2nc(-c3cc(Cl)c(N)c(Cl)c3)[nH]c2c1 was run?
A: Its Potency is inconclusive [inhibitor, partial curve].

Q: For CCOC(=O)c1c(C)nc2sc(C(N)=O)c(N)c2c1-c1ccccc1, which “activity, negative = inhibition” value is on record?
A: Its value is inactive: -3.08%.

Q: Which Potency does the source give for COc1ccc2cc(C(C)C(=O)N3CCC(C)CC3)ccc2c1 (stereo unspecified) here?
A: Its Potency is inconclusive [inhibitor, partial curve].

Q: How did the Potency turn out when COc1ccc(C2CC2/C(=N/O)c2ccccn2)cc1 (stereo unspecified) was run?
A: The Potency was inconclusive [inhibitor, single point].

Q: Which Potency does the source give for N#CC(C(=O)NCCc1ccccc1)c1nc2ccccc2nc1N1CCOCC1 (stereo unspecified) here?
A: Its Potency is inconclusive [inhibitor, partial curve].

Q: How did the Potency turn out when COc1cc(C(=O)Nc2sc(C)c(C)c2C(=O)O)cc(OC)c1OC was run?
A: Its Potency is inconclusive [inhibitor, partial curve].

Q: For OC(c1ccccc1)(c1nc(/C=C/c2ccccc2)cs1)C(F)(F)F (stereo unspecified), which Potency is on record?
A: Its Potency is inconclusive [inhibitor, partial curve].

Q: For c1ccc(CCNCC2COc3ccccc3O2)cc1 (stereo unspecified), which Potency is on record?
A: The Potency was inconclusive [inhibitor, single point].

Q: For CCOc1cc(-c2c(C#N)c(N)nc3c2CCCC3C)ccc1O (stereo unspecified), which Potency is on record?
A: The Potency was inconclusive [inhibitor, partial curve].

Q: With COC(=O)/N=C(/Cc1ccc(OC)cc1)c1ccc(OC)cc1 as the compound, how does the Potency read?
A: Its Potency is active: 56.2 µM.

Q: How did the Potency turn out when Cc1cc(C(C)(C)C)cc(C)c1COC(=O)c1cccnc1 was run?
A: The Potency was inconclusive [inhibitor, partial curve].

Q: How did the Potency turn out when C=CCOC(=O)C1=C[C@H](c2cn(C(C)=O)c3ccccc23)[C@@H](CCCO)[C@H](OCC)O1 was run?
A: Its Potency is inconclusive [inhibitor, full curve].

Q: With CC1=NN(C(N)=S)C(=O)C1N=Nc1c(Br)cc(Br)cc1Br (stereo unspecified) as the compound, how does the Potency read?
A: The Potency was inconclusive [inhibitor, full curve].

Q: For Cc1ccc([C@H]2C(C(=O)O)=CC[C@@H](c3cccc(Cl)c3)N2S(=O)(=O)c2ccc(C)cc2)cc1, which Potency is on record?
A: Its Potency is inconclusive [inhibitor, partial curve].

Q: With Clc1ccccc1CSc1cc2c(nn1)-c1ccccc1CC2 as the compound, how does the “activity, negative = inhibition” value read?
A: The value was inactive: -1.14%.

Q: Cc1ccc(S(=O)(=O)Nc2ccc3nc(C)sc3c2)c(C)c1 was tested. Which Potency did it give?
A: The Potency was inconclusive [inhibitor, partial curve].

Q: How did the “activity, negative = inhibition” value turn out when CCOC(=O)c1c(NC(=O)C(NCCN(C)C)c2ccccc2)sc2c1CCCC2 (stereo unspecified) was run?
A: Its value is inactive: -15.7%.

Q: With COc1cccc(-n2nnnc2S(C)(=O)=O)c1 as the compound, how does the “activity, negative = inhibition” value read?
A: Its value is inactive: -1.87%.

Q: Which Potency does the source give for CCc1c(-c2ccccc2)ncn1Cc1cccc(-c2ccccc2)c1 here?
A: The Potency was inconclusive [inhibitor, partial curve].

Q: CC(=O)Nc1c(S(=O)(=O)c2ccccc2)c2nc3ccccc3nc2n1Cc1ccccc1 was tested. Which “activity, negative = inhibition” value did it give?
A: The value was inactive: -1.24%.

Q: Which “activity, negative = inhibition” value does the source give for C[n+]1c(-c2ccccc2)cc2c(=Cc3ccc([N+](=O)[O-])cc3)c3ccccc3n21 here?
A: The value was inactive: -0.134%.

Q: Which Potency does the source give for CCCCCC(=O)Cc1cc(O)cc2c1C(=O)Oc1cc(O)c(C(=O)O)c(CCCCC)c1O2 here?
A: Its Potency is active: 15.8 µM.

Q: Which “activity, negative = inhibition” value does the source give for CCN(CC)S(=O)(=O)c1ccc2c(c1)N(CC(=O)Nc1ccc(NC(C)=O)cc1)C(=O)CO2 here?
A: Its value is inactive: 4.39%.

Q: Nc1ccccc1Nc1cccc(C(F)(F)F)c1 was tested. Which Potency did it give?
A: Its Potency is inconclusive [inhibitor, partial curve].

Q: With O=C1CC2(CCCCC2)Oc2ccccc21 as the compound, how does the Potency read?
A: Its Potency is inconclusive [inhibitor, partial curve].

Q: C=CCNc1nc2cc(-c3cccc(NC(C)=O)c3)sc2c(=O)n1C was tested. Which “activity, negative = inhibition” value did it give?
A: The value was inactive: 5.98%.

Q: How did the Potency turn out when C=CCc1cc(OC)ccc1OCC(O)CN1CCN(c2ccc(OC)cc2)CC1 (stereo unspecified) was run?
A: Its Potency is “inactive”.

Q: Cc1cccc(NC(=O)N2CCN(Cc3ccc(Cl)cc3)CC2)c1 was tested. Which Potency did it give?
A: Its Potency is inconclusive [inhibitor, single point].

Q: Which Potency does the source give for COc1ccc(/C=C2\CCC(C3CCCC3)C2=O)cc1Cn1cccn1 (stereo unspecified) here?
A: The Potency was inconclusive [inhibitor, partial curve, poor fit].

Q: How did the Potency turn out when O=C1c2ccncc2C(=O)N1c1cccc(Cl)c1 was run?
A: The Potency was inconclusive [inhibitor, single point].

Q: With COc1cccc(NC(=O)c2sc3nc(N4CCOCC4)c4c(c3c2N)CCCC4)c1 as the compound, how does the Potency read?
A: The Potency was inconclusive [inhibitor, single point].

Q: For CCOC(=O)c1ccc(N=C2SC(C(=O)Nc3ccc(C(=O)O)cc3)CC(=O)N2Cc2cccs2)cc1 (stereo unspecified), which Potency is on record?
A: The Potency was inconclusive [inhibitor, partial curve].

Q: For CS(=O)(=O)Oc1ccc2c(c1)O/C(=C\C=C\c1ccccc1)C2=O, which “activity, negative = inhibition” value is on record?
A: The value was inactive: -2.56%.

Q: Which “activity, negative = inhibition” value does the source give for COc1ccc(C(=O)N/N=C/C(=O)c2ccccc2)cc1 here?
A: The value was inactive: -0.143%.

Q: How did the Potency turn out when CCN(CC)C(=O)CSc1nc(Cc2ccccc2)nc2ccccc12 was run?
A: Its Potency is inconclusive [inhibitor, full curve, poor fit].

Q: Which Potency does the source give for CCc1nc2c(OCCOc3ccc(F)cc3)cccn2c1N(C)C(=O)c1ccc(OC)cc1 here?
A: The Potency was inconclusive [inhibitor, single point].

Q: How did the “activity, negative = inhibition” value turn out when COc1ccccc1N1CCN(Cc2cc(Br)c(O)c3ncccc23)CC1 was run?
A: Its value is inactive: 20.5%.

Q: For O=C(Cc1ccccc1Cl)c1ccccc1, which Potency is on record?
A: The Potency was inconclusive [inhibitor, partial curve].

Q: With CCC(C(=O)Nc1ccc(C(C)C)cc1)c1ccccc1 (stereo unspecified) as the compound, how does the Potency read?
A: The Potency was inconclusive [inhibitor, partial curve].

— PubChem BioAssay AID720708 (National Center for Advancing Translational Sciences (NCATS), 2013)
